Results as given in PubChem BioAssay AID1508642 (National Center for Advancing Translational Sciences (NCATS), 2021).
Out of some 43,000 compounds screened, about 200 (0.47%) were called active. Not shown: some 12% with an inconclusive outcome. Calls come from the whole dose curve; as a rule, active = well fitted cell-killing curve with a large enough effect; inconclusive = small, poorly fitted or top-dose-only effect, or effect the other way; inactive = flat fitted curve, though single readings scatter. The list shows a part of the results.

Test: Cell viability qHTS assay in S16 Pmp22-F2sN cells; note: nearly all actives have a fitted effect of over 65% in size
Conditions: S16 Pmp22-F2sN Schwann cells (luciferase reporters placed in the Pmp22 gene) viability, CellTiter-Glo, 24 h; series mostly up to 57.5 µM; activity change, negative = cytotoxicity: at the top concentration
How it was run: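 Seed 500-1,000 S16 Pmp22-F2sN cells per well in phenol-red-free DMEM with 10% heat-inactivated FBS; pin-add 23 nL compound; incubate 24 h at 37C; add CellTiter-Glo, wait 15 min protected from light; read luminescence.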
% is set by controls: 0 for no effect and ±100 for the full control effect.

| Structure (SMILES) | activity change, negative = cytotoxicity |
| --- | --- |
| Cc1cccc(Nc2cc(C)nc3nc(Cc4ccc(Cl)cc4)nn23)c1 | inactive: -21.3% |
| CCOC(=O)c1ccc(NC(=O)Cn2cc(S(=O)(=O)Cc3ccccc3F)c3ccccc32)cc1 | inactive: 12.9% |
| Cc1cc(-c2ccccc2)nc2cc(C(=O)Nc3cc(C(F)(F)F)ccc3Cl)nn12 | inactive: 16.6% |
| COc1ccc(CNC(=O)c2ccc3c(Cl)c4c(nc3c2)CCCC4)c(OC)c1 | inactive: 0.891% |
| COc1ccc(-c2ccc(NS(=O)(=O)c3ccccc3Cl)cc2)nn1 | inactive: -19.1% |
| COc1ccc(Cn2c(CCC(=O)Nc3cccc(Cl)c3)nc3cccnc32)cc1 | inactive: 7.61% |
| Cc1nc(N2CCOCC2)c2c(C(=O)N3CCN(c4ccc(Cl)cc4)CC3)c(C)oc2n1 | inactive: 6.43% |
| CCOc1cccc2cc(-c3nc(-c4ccc(Cl)cc4)c(C)s3)c(=O)oc12 | inactive: 10.8% |
| CCc1ccc(-c2cn3c(n2)sc2cc(C(=O)NCCCc4ccccc4)ccc23)cc1 | inactive: -3.53% |
| COc1ccc(-c2nsc(NC(=O)c3cccc(OC)c3)n2)cc1 | inactive: -1.18% |
| Cc1ccc(OCCSc2nc3ccccc3n2CC(=O)N2CCCCC2)c(C)c1 | inactive: -20.7% |
| O=C(Nc1cccc(-c2nc3cc(Cl)ccc3o2)c1)c1ccc(F)cc1 | inactive: 12.6% |
| O=C(Cn1c(=O)n(Cc2ccc(F)cc2)c(=O)c2sc3ccccc3c21)NCc1ccccc1 | inactive: 5.76% |
| COc1cccc(OCc2nc3ccccc3n2C)c1 | inactive: 8.06% |
| O=C(CCn1cnc2onc(-c3ccc(F)cc3)c2c1=O)N1CCN(c2ccccc2)CC1 | inactive: -1.72% |
| O=C(NCc1noc2ccccc12)N1CCN(c2ccccc2F)CC1 | inactive: 0.527% |
| O=C(Cn1c(=O)oc2cc(S(=O)(=O)N3CCCC3)ccc21)Nc1ccc(OC(F)(F)F)cc1 | inactive: 1.37% |
| COc1ccc(-c2nc3sc(CCNC(=O)C(=O)Nc4ccc(C)cc4C)c(C)n3n2)cc1 | inactive: -11.9% |
| Cc1ccc(NC(=O)C2CCC(CNS(=O)(=O)c3cccc4nsnc34)CC2)c(C)c1 (stereo not given) | inactive: 7.38% |
| Cc1ccc(C)c(Cn2c(C(C)NC(=O)c3ccccc3)nc3ccccc32)c1 (stereo not given) | inactive: 1.96% |
| Cc1nc2ccc(S(=O)(=O)N(CC(=O)Nc3cccc(C)c3C)Cc3ccccc3)cc2s1 | inactive: -6.67% |
| Cc1[nH]c2ccc(C(=O)NCCc3ccccc3Cl)cc2c1C | inactive: -20.4% |
| Cc1cccc(NC(=O)CN2C(=O)COc3ccc(S(=O)(=O)Nc4ccccc4)cc32)c1C | inactive: 5.26% |
| Cc1ccc(Cl)cc1N1CCN(S(=O)(=O)c2ccc3oc(=O)c4ncn(C)c4c3c2)CC1 | inactive: -5.5% |

| Structure (SMILES) | activity change, negative = cytotoxicity |
| --- | --- |
| Cc1ccccc1Cn1cc(NC(=O)c2cc(-c3ccc(Cl)cc3)on2)cn1 | inactive: 12% |
| Cc1cccc(OCC(=O)NCC2(N3CCN(C)CC3)CCCCC2)c1 | inactive: -0.124% |
| CCC1CN(C(=O)N2CCC(C(=O)NCc3ccc(C)o3)CC2)c2ccccc2O1 (stereo not given) | inactive: 1.81% |
| COc1ccc(Nc2cc(C(=O)NCc3ccccc3)c3ccccc3n2)cc1 | inactive: 11.3% |
| CCCS(=O)(=O)N1CC(=O)N(c2ccccc2C)C(C)(C(=O)NC2CCCCC2)C1 (stereo not given) | inactive: -0.945% |
| CC(C)OCCCn1c(=O)c2ccccc2n2c(-c3ccc(F)c(F)c3)nnc12 | inactive: -2.35% |
| Cc1ccc(S(=O)(=O)c2nnn3c2nc(NCc2ccc(F)cc2)c2sccc23)cc1C | inactive: 10.1% |
| CCOC(=O)c1cccc(NC(=O)C2(S(=O)(=O)c3ccc(C)cc3)CC2)c1 | inactive: -3.21% |
| COc1cccc(C(=O)Nc2ccc(-c3nc4ccc(C)cc4s3)cc2)c1OC | inactive: -2.72% |
| COc1cn(CC(=O)Nc2ccc(C)cc2C)c(CN2CCCCC2)cc1=O | inactive: 5.56% |
| CCOc1ccc(C2c3c(oc4ccccc4c3=O)C(=O)N2Cc2ccc3c(c2)OCO3)cc1 (stereo not given) | inactive: 1.98% |
| Cc1ccc(Nc2c(-c3ccc(N4CCOCC4)cc3)nc3ccc(Cl)cn23)cc1 | inactive: 0.466% |
| Cc1cc2c(cc1S(=O)(=O)N1CCC(C(N)=O)CC1)OCC(=O)N2 | inactive: 6.95% |
| Cc1cc(C)c(NC(=O)Cn2nnc(-c3nc(-c4ccncc4)no3)c2N)c(C)c1 | inactive: 0.194% |
| CC(=O)C1=C(c2ccc(C)cc2)N(C(C)=O)n2c(nnc2-c2ccccc2)S1 | inactive: -0.993% |
| COc1ccc(S(=O)(=O)NCC(c2ccc(N(C)C)cc2)N2CCCC2)cc1F (stereo not given) | inactive: 3.74% |
| CCOc1cccc(C2c3c(oc4ccc(F)cc4c3=O)C(=O)N2CCOC)c1 (stereo not given) | inactive: 0.974% |
| CCCNC(=O)C1CCC(Cn2c(=O)c3sccc3n(CC(=O)N3CCCC(C)C3)c2=O)CC1 (stereo not given) | inactive: 7.67% |
| O=C(O)c1cccc(NC(=O)c2cccc(S(=O)(=O)Nc3cccc(F)c3)c2)c1 | inactive: 3.73% |
| Cc1ccc(N2CCN(c3nc4ccccc4n4nnnc34)CC2)c(C)c1 | inactive: 11.8% |
| COc1cccc(C(=O)Nc2ccccc2SCc2cc(=O)c3cccc(C)c3[nH]2)c1 | inactive: 11.1% |
| Cc1cc(C)cc(NC(=O)c2cc(S(=O)(=O)N3CCOCC3)cn2C)c1 | inactive: -6.18% |
| Cc1ccc(NC(=O)C2CCN(c3ncccn3)CC2)cc1F | inactive: 8.19% |
| COc1ccccc1OCCn1c(NC(=O)c2ccccc2)nc2ccccc21 | inactive: -4.64% |

| Structure (SMILES) | activity change, negative = cytotoxicity |
| --- | --- |
| Cc1ccc(-n2c(SCC(N)=O)nc3c(oc4ccccc43)c2=O)cc1 | inactive: 3.49% |
| Cc1ccc(CCNC(=O)c2ccc(Cn3c(=O)c4cccn4c4cccnc43)cc2)cc1 | inactive: -3.52% |
| CCn1c(CNC(=O)C23CC4CC(CC(C4)C2)C3)nnc1SCC(=O)Nc1ccc(OC)cc1 | inactive: 9.9% |
| O=C(COc1cccc(Cl)c1)N1CCC(c2nc3ccccc3s2)CC1 | inactive: -0.449% |
| CCOc1ccccc1NC(=O)C(C)n1nnc2sc3c(c2c1=O)CCCC3 (stereo not given) | inactive: 0.597% |
| CCC12CN3CC(C)(CN(C1)C3c1c[nH]c3ccc(OC)cc13)C2=O (stereo not given) | inactive: 8.39% |
| Cc1ccccc1NC(=O)Cn1c(=O)n(CCC(=O)NCc2ccc3c(c2)OCO3)c(=O)c2sccc21 | inactive: 4.56% |
| CC(=O)N1CCc2cc(CNS(=O)(=O)c3ccc(C(C)(C)C)cc3)ccc21 | inactive: 0.381% |
| O=C1CN(C(=O)c2ccc(S(=O)(=O)N3CCCCC3)cc2)C(c2ccc(F)cc2)c2cc(Br)ccc2N1 (stereo not given) | inactive: -16.5% |
| CCN(CC)C(=O)c1sc2c(c1C)c(=O)n(-c1ccc(C)c(C)c1)c(=O)n2Cc1cccc(Cl)c1 | inactive: 15.2% |
| CCOC(=O)C1CCCN(C(=O)CCS(=O)(=O)c2cc3c(cc2Cl)NC(=O)CO3)C1 (stereo not given) | inactive: 26.3% |
| CCC(Sc1nc2cc3c(cc2c(=O)n1CCCC(=O)NCc1ccc(OC)cc1)OCO3)C(=O)NCCCOC (stereo not given) | inactive: -12.9% |
| Cc1ccc(OCC(=O)Nc2ccc3nc(SCC(=O)N4CCOCC4)sc3c2)cc1C | inactive: -1.65% |
| Cc1ccc2cccc(NC(=O)c3ccc(C#N)cc3F)c2n1 | inactive: 8.64% |
| Cc1ccccc1C(=O)NC1(C(F)(F)F)N=C(c2ccccc2)N(Cc2ccccc2)C1=O (stereo not given) | inactive: -14.1% |
| COc1cccc(-c2cc(C(F)(F)F)n3nc(C)c(-c4ccccc4)c3n2)c1 | inactive: 19.3% |
| CCn1ccc2cc(S(=O)(=O)N3CCCN(C(=O)NCC(=O)OC)CC3)ccc21 | inactive: -1.63% |
| Cc1ccc2nc(COc3cccc(NC(=O)c4cccc(Cl)c4)c3)cc(=O)n2c1 | inactive: 20.5% |
| Cc1cc(C)c(S(=O)(=O)NCc2csc(-c3ccccc3)n2)c(C)c1 | inactive: -9.21% |
| O=C(COc1ccccc1[N+](=O)[O-])Nc1cc(-c2nc3cc(Cl)ccc3o2)ccc1Cl | inactive: 12.9% |
| COC(=O)c1ccc(Oc2nc3c(c(=O)n(C)c(=O)n3C)n2C(C)C)cc1 | inactive: 3.87% |
| CCc1ccccc1N(C)C(=O)c1nn(C)c2c1CSc1ccccc1-2 | inactive: 13.9% |
| CCCCNC(=O)CSc1nc2cc3c(cc2c(=O)n1CCCCCC(=O)NCCc1ccc(OC)c(OC)c1)OCO3 | inactive: 2.55% |
| Cc1ccc2nc(N3CCC(C(=O)NCc4ccc(F)cc4)CC3)[nH]c2c1 | inactive: 19.4% |

| Structure (SMILES) | activity change, negative = cytotoxicity |
| --- | --- |
| CCCCCC(=O)N(c1ccc(OCC)cc1)S(=O)(=O)c1ccc2c(c1)n(C)c(=O)n2C | inactive: -4.32% |
| Cc1ccc(CCNC(=O)c2ccc(CS(=O)(=O)Cc3cccc(C)c3)o2)cc1 | inactive: 20.4% |
| Cc1ccc(NC(=O)Cn2cc3c(n2)CCC(C)C3)cc1C (stereo not given) | inactive: 7.26% |
| COc1ccc(Cn2ccc3nc(C)c(C(=O)N4CCN(c5ccccc5F)CC4)cc3c2=O)cc1 | inactive: 6.9% |
| CSc1ccc(CNC(=O)CN2C(=O)C3CCCCN3c3ccc(C(=O)N4CCCC4)cc32)cc1 (stereo not given) | inactive: -16.3% |
| Cn1ccc2c(OCC(=O)Nc3ccc([N+](=O)[O-])cc3)cccc2c1=O | inactive: 6.46% |
| Cc1cccc(OCC(=O)Nc2ccc3oc(-c4ccccc4F)nc3c2)c1 | inactive: 13.1% |
| COC(=O)c1cc2sc(C)cc2n1CC(=O)Nc1cccc(SC)c1 | inactive: 3.81% |
| O=S(=O)(NCc1nc2cccnc2n1Cc1ccc(F)cc1)c1ccc(Cl)s1 | inactive: -8.36% |
| COc1ccc(-c2nc3cc(C(C)C)ccc3o2)cc1NC(=O)c1ccc(C)c(Cl)c1 | inactive: -2.06% |
| CCc1ccc(NC(=O)C2CCN(S(=O)(=O)c3c(C)noc3/C=C/c3ccco3)CC2)cc1 | inactive: 7.65% |
| FC(F)(F)c1ccc(-c2noc(-c3ccccc3Br)n2)cc1 | inactive: -17.8% |
| CCOC(=O)C1CCN(C(=O)c2ccc3c(c2)sc2nc(-c4ccc(C)cc4)cn23)CC1 | inactive: -20% |
| COc1ccc(OC)c(/C=C(\C#N)c2nc3ccccc3c(=O)[nH]2)c1 | inactive: 1% |
| O=C(CCC(=O)c1ccccc1)Nc1ccc(F)c(Cl)c1 | inactive: 5.24% |
| COc1ccc(CCN2CC(C(=O)NCCc3ccccc3)CC2=O)cc1OC (stereo not given) | inactive: 25% |
| Cc1ccc(C)c(S(=O)(=O)NCCc2csc(-c3ccc(Cl)cc3)n2)c1 | inactive: -3.44% |
| Cc1cccc(NC(=O)C2CCCN(S(=O)(=O)c3ccc4c(c3)oc(=O)n4C)C2)c1 (stereo not given) | inactive: 2.18% |
| O=S(=O)(NCCS(=O)(=O)N1CCN(c2ccccc2)CC1)c1ccc(Cl)cc1 | inactive: -1.54% |
| Cc1sc2c(c1C)c(=O)n(CCc1ccccc1)c(=O)n2Cc1ccc(F)cc1 | inactive: -29.6% |
| O=C(Nc1ccc(Cl)cc1)c1cc2nc(-c3ccc4c(c3)OCO4)cc(C(F)(F)F)n2n1 | inactive: -0.956% |
| CCn1c(=O)n(-c2cccc(Cl)c2)c(=O)c2sc3ccccc3c21 | inactive: 1.66% |
| CC(=O)c1ccc(N2CCN(C(=O)c3cc4ccc5cccnc5c4[nH]3)CC2)cc1 | inactive: 12% |
